In the supplement of paper PMC8512760:
Where a name gives a salt, the structure may show the parent alone. Some of the results follow. Many values rest on one well or one pass, so single values are uncertain.

Key:
Assay in all cases: cell viability relative to vehicle (% of vehicle); basal-like triple-negative breast cancer lines; higher = less cytotoxic
Settings in all cases: 10 µM; 72 h
[1] = system: HCC-1143
[2] = system: HCC-1187
[3] = system: MDA-468
[4] = system: SUM-149
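Also: stably firefly luciferase-GFP labeled cells in 96-well plates, viability read as luciferase photon flux after d-luciferin addition, treated wells normalized to vehicle wells, single-dose high-throughput screen.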

| Structure (SMILES) | cell viability [1] | cell viability [2] | cell viability [3] | cell viability [4] |
| --- | --- | --- | --- | --- |
| C[C@H](C(=O)O)c1ccc(-c2ccccc2)c(F)c1 [(S)-Flurbiprofen] | 81.7 | 96.4 | 117 | 91.1 |
| CC12CCC(O)CC1=CCC1C2CCC2(C)C(c3cccnc3)=CCC12 (stereo not given) [Abiraterone] | 93.1 | 103 | 119 | 152 |
| CCCCCCCN(CC)CCCC(O)c1ccc(NS(C)(=O)=O)cc1.CCCCCCCN(CC)CCCC(O)c1ccc(NS(C)(=O)=O)cc1.O=C(O)C=CC(=O)O (stereo not given) [Ibutilide Fumarate] | 77 | 99.1 | 129 | 111 |
| CN1C[C@@H]2c3ccccc3Oc3ccc(Cl)cc3[C@H]2C1.O=C(O)/C=C/C(=O)O [Asenapine] | 83.5 | 97.2 | 95.4 | 101 |
| COc1ccc(Cl)cc1C(=O)NCCc1ccc(S(=O)(=O)NC(=O)NC2CCCCC2)cc1 [Glibenclamide] | 79.1 | 86.5 | 134 | 120 |
| CON=C(C(=O)NC1C(=O)N2C(C(=O)O)=C(CSC(=O)c3ccco3)CSC12)c1csc(N)n1.Cl (stereo not given) [Ceftiofur HCl] | 71.6 | 73.8 | 107 | 136 |
| Cl.NCCS [Cysteamine HCl] | 72 | 86.5 | 97.3 | 104 |
| CCCC(CCC)C(=O)O [Valproic acid] | 95.4 | 83.6 | 133 | 115 |
| CC(C)n1c(C=CC(O)CC(O)CC(=O)[O-])c(-c2ccc(F)cc2)c2ccccc21.[Na+] (stereo not given) [Fluvastatin Sodium] | 85.6 | 53.1 | 43.6 | 84.2 |
| NC(=O)N1c2ccccc2CC(=O)c2ccccc21 [Oxcarbazepine] | 79.6 | 84.9 | 128 | 114 |
| NCC(O)c1ccc(O)c(O)c1.O.O=C(O)C(O)C(O)C(=O)O (stereo not given) [Noradrenaline bitartrate monohydrate] | 93.1 | 99.1 | 176 | 116 |
| FC(F)(F)c1ccc(C=Cc2nc(COc3ccc(CCCCn4ccnn4)cc3)co2)cc1 [Mubritinib (TAK 165)] | 94.7 | 70.4 | 130 | 120 |
| CCCCCCCCOc1ccccc1C(=O)Nc1ccc(C(=O)OCC[N+](C)(CC)CC)cc1.[Br-] [Otilonium Bromide] | 78.1 | 73 | 84.9 | 122 |
| CCc1cc(C(N)=S)ccn1 [Ethionamide] | 77.4 | 83.2 | 99.9 | 98.4 |
| CC(C)CC(NC(=O)C(CCc1ccccc1)NC(=O)CN1CCOCC1)C(=O)NC(Cc1ccccc1)C(=O)NC(CC(C)C)C(=O)C1(C)CO1 (stereo not given) [Carfilzomib (PR-171)] | 23.3 | 22.3 | 23.6 | 35.6 |
| Cc1ccccc1C(=O)Nc1ccc(C(=O)N2CCCC(O)c3cc(Cl)ccc32)c(C)c1 (stereo not given) [Tolvaptan] | 77.1 | 94.8 | 92.1 | 107 |
| COc1cccc2c1C(=O)c1c(O)c3c(c(O)c1C2=O)C[C@@](O)(C(C)=O)C[C@@H]3O[C@H]1C[C@H](N)[C@H](O)[C@H](C)O1.Cl [Daunorubicin HCl] | 20.3 | 22.9 | 32.4 | 26.5 |
| CCCc1cc(C(N)=S)ccn1 [Protionamide] | 77.5 | 71.9 | 98.2 | 110 |
| O=C(C1CCCCC1)N1CC(=O)N2CCc3ccccc3C2C1 (stereo not given) [Praziquantel] | 76.7 | 98.6 | 113 | 107 |
| COc1cc(NC(C)CCCN)c2ncccc2c1.O=P(O)(O)O.O=P(O)(O)O (stereo not given) [Primaquine Diphosphate] | 73.2 | 66 | 78.8 | 106 |
| Cc1ccnc2c1NC(=O)c1cccnc1N2C1CC1 [Nevirapine] | 90.4 | 124 | 119 | 96.8 |
| O=C(c1ccc(F)c(F)c1Nc1ccc(I)cc1F)N1CC(O)(C2CCCCN2)C1 (stereo not given) [Cobimetinib] | 86.7 | 60.5 | 82.2 | 48.4 |
| CC(=O)[C@@]1(O)CC[C@H]2[C@@H]3CCC4=CC(=O)CCC4=C3[C@@H](c3ccc(N(C)C)cc3)C[C@@]21C [Ulipristal] | 120 | 107 | 96.2 | 109 |
| CC(CN1c2ccccc2Sc2ccccc21)N(C)C (stereo not given) [Promethazine HCl] | 123 | 101 | 111 | 82 |
| COc1ccc(C(=O)CC(=O)c2ccc(C(C)(C)C)cc2)cc1 [Avobenzone] | 79.3 | 101 | 104 | 93.4 |

| Structure (SMILES) | cell viability [1] | cell viability [2] | cell viability [3] | cell viability [4] |
| --- | --- | --- | --- | --- |
| COc1cc(C2Oc3cc(C4Oc5cc(O)cc(O)c5C(=O)C4O)ccc3OC2CO)ccc1O (stereo not given) [Silymarin] | 82.9 | 82.7 | 113 | 106 |
| COc1cc(C(=O)NS(=O)(=O)c2ccccc2C)ccc1Cc1cn(C)c2ccc(NC(=O)OC3CCCC3)cc12 [Zafirlukast] | 93.4 | 109 | 93 | 88 |
| CNC(=O)c1cc(Oc2ccc(NC(=O)Nc3ccc(Cl)c(C(F)(F)F)c3)c(F)c2)ccn1.Cl [Regorafenib hydrochloride] | 84.8 | 101 | 89.6 | 111 |
| COC(=O)C12CCC(C)(C)CC1C1C(=O)C=C3C4(C)C=C(C#N)C(=O)C(C)(C)C4CCC3(C)C1(C)CC2 (stereo not given) [Bardoxolone methyl] | 23.9 | 19.9 | 23 | 35 |
| CNCc1ccc(-c2[nH]c3cc(F)cc4c3c2CCNC4=O)cc1.O=P(O)(O)O | 86.2 | 76.8 | 88 | 195 |
| CNS(=O)(=O)CCc1ccc2[nH]cc(C3CCN(C)CC3)c2c1.Cl [Naratriptan] | 75.2 | 92.7 | 85 | 75.3 |
| COc1ccc(C2CNC(=O)C2)cc1OC1CCCC1 (stereo not given) [Rolipram] | 88.5 | 89.8 | 94.4 | 124 |
| O=C1NC(=O)C(c2ccccc2)(c2ccccc2)N1 [Phenytoin] | 101 | 123 | 110 | 135 |
| O=P(O)(O)C(O)(Cn1ccnc1)P(=O)(O)O [Zoledronic Acid] | 90.7 | 98.7 | 97 | 79.4 |
| O=C(O)CCCN1CCC(OC(c2ccc(Cl)cc2)c2ccccn2)CC1.O=S(=O)(O)c1ccccc1 (stereo not given) [Bepotastine Besilate] | 78.9 | 98.6 | 97.8 | 111 |
| Cl.NC(N)=NC(N)=NCCc1ccccc1 [Phenformin HCl] | 84.7 | 94.8 | 103 | 116 |
| CN(C)CCC=C1c2ccccc2CCc2ccccc21.Cl [Amitriptyline HCl] | 78.2 | 105 | 93.3 | 73.2 |
| CC(O)C(=O)O.CCOc1ccc2nc3cc(N)ccc3c(N)c2c1.O [Ethacridine lactate monohydrate] | 46.3 | 28.3 | 50.5 | 87.5 |
| Clc1ccc2c(c1)CCc1cccnc1C2=C1CCNCC1 [Desloratadine] | 88.6 | 91.2 | 87.8 | 91.7 |
| Nc1nc(=O)n(C2CSC(CO)O2)cc1F (stereo not given) [Emtricitabine] | 81.4 | 85.6 | 97.6 | 98.3 |
| NCCCC(O)(P(=O)([O-])O)P(=O)(O)O.[Na+] [Alendronate sodium] | 69 | 97.9 | 87.6 | 86.8 |
| Cc1c(N(C)C)c(=O)n(-c2ccccc2)n1C [Amidopyrine] | 69.5 | 91.9 | 118 | 128 |
| COc1cc2c(cc1OC)CN(CCc1ccc(NC(=O)c3cccc4c(=O)c5cccc(OC)c5[nH]c34)cc1)CC2 [Elacridar] | 87.7 | 110 | 73.4 | 104 |
| CC(=O)O.C[C@H](N)C(=O)O.NCCCC[C@H](N)C(=O)O.N[C@@H](CCC(=O)O)C(=O)O.N[C@@H](Cc1ccc(O)cc1)C(=O)O [glatiramer acetate] | 71.9 | 97.5 | 110 | 84.8 |
| Br.COc1ccc2c3c1O[C@H]1C[C@@H](O)C=C[C@@]31CCN(C)C2 [Galanthamine HBr] | 65.2 | 89.4 | 85.5 | 110 |
| CCCc1nc(C)c2c(=O)nc(-c3cc(S(=O)(=O)N4CCN(CC)CC4)ccc3OCC)[nH]n12 [Vardenafil] | 85.8 | 80.4 | 97.6 | 139 |
| CC1(C)O[C@@H]2C[C@H]3[C@@H]4C[C@H](F)C5=CC(=O)C=C[C@]5(C)[C@@]4(F)[C@@H](O)C[C@]3(C)[C@]2(C(=O)CO)O1 [Fluocinolone Acetonide] | 86.6 | 95 | 154 | 189 |
| NC(=O)c1cnccn1 [Pyrazinamide] | 85.5 | 85.6 | 99.7 | 107 |
| CC#CCn1c(N2CCCC(N)C2)nc2c1c(=O)n(Cc1nc(C)c3ccccc3n1)c(=O)n2C (stereo not given) [Linagliptin (BI-1356)] | 102 | 97.1 | 85 | 124 |
| CS(=O)(=O)c1ccc(C(O)C(CO)NC(=O)C(Cl)Cl)cc1 (stereo not given) [Thiamphenicol] | 64.7 | 96.4 | 105 | 112 |
